Results published in patent US20090291088A1, “THERAPEUTIC COMBINATIONS OF ANTI-IGF-1R ANTIBODIES AND OTHER COMPOUNDS” (Biogen Idec MA Inc., priority 2008, published 2009).

B1: M14-G11: anti-IGF1-R antibody, competitive blocker of IGF-1 and IGF-2 (antibody, V domains shown)
VH: EVQLLESGGGLVQPGGSLRLSCAASGFTFSNYPMYWVRQAPGKGLEWVSRISSSGGRTVYADSVKGRFTISRDNSKNTLYLQMNSLRAEDTAVYYCARDRWSRSAAEYGLGGYWGQGTLVTVSS
VL: DIQMTQSPDSLAVSLGERATINCKSSQSVLYSSNNKNYLAWYQQKPGQPPKLLIYLASTRESGVPDRFSGSGSGTDFTLTISSLQAEDVAVYYCQQYYSTWTFGQGTKVEIK
modifications: Antibody variable heavy chain sequence; Antibody variable light chain sequence
B2: M13-C06.G4.P.agly: full-length hinge-modified aglycosylated human gamma 4, kappa antibody with the binding domain of Fab M13-C06 (antibody)
heavy: EVQLLESGGGLVQPGGSLRLSCAASGFTFSIYRMQWVRQAPGKGLEWVSGISPSGGTTWYADSVKGRFTISRDNSKNTLYLQMNSLRAEDTAVYYCARWSGGSGYAFDIWGQGTMVTVSSASTKGPSVFPLAPCSRSTSESTAALGCLVKDYFPEPVTVSWNSGALTSGVHTFPAVLQSSGLYSLSSVVTVPSSSLGTKTYTCNVDHKPSNTKVDKRV[human IgG4 Fc with S228P T299A (EU numbers) not written out]
light: DIQMTQSPLSLSASVGDRVTITCQASRDIRNYLNWYQQKPGKAPKLLIYDASSLQTGVPSRFGGSGSGTDFSFTIGSLQPEDIATYYCQQFDSLPHTFGQGTKLEIKRTVAAPSVFIFPPSDEQLKSGTASVVCLLNNFYPREAKVQWKVDNALQSGNSQESVTEQDSKDSTYSLSSTLTLSKADYEKHKVYACEVTHQGLSSPVTKSFNRGEC
B3: M14-G11.G4.P: full-length human IgG4.P version of Fab M14-G11 (antibody, V domains shown)
VH: B1 VH
VL: B1 VL

What was measured:
IGF-1R = IGF-1R (Homo sapiens, UniProt P08069); test: Ligand blocking assay (RIA): 125I-IGF-1 / 125I-IGF-2 binding to immobilized IGF-1R; design: human IGF-1R(1-903)-Fc (denoted hIGF-1R-Fc, generated by Biogen Idec); settings: for blocking of IGF-1 and IGF-2 binding to IGF-1R: 100 nM-0.01 nM antibody, IGF-1R-Fc
Source text: Ligand blocking assay (RIA). […] Insulin (Arg-Insulin, Cat #01-207) was purchased from Upstate Cell Signaling Solutions (Lake Placid, N.Y. (now part of Millipore, Concord, Mass. (USA)). ^125I-rhIGF-1 (Cat # IM172), ^125I-rhIGF-2 (Cat# IM238) and ^125I-rhInsulin (Cat# IM166) were purchased from Amersham Biosciences (Piscataway, N.J.). AffiPure goat anti-human IgG, Fcγ fragment specific antibodies (Cat #109-005-098, Jackson ImmunoResearch, West Grove, Pa.) was used for IGF-1R-Fc capture. As detection antibody, goat anti-mouse IgG HRP (Cat #1030-05, Southern Biotech Birmingham, Ala.) was used.
Human insulin receptor α-subunit specific antibodies, Clone 83-14, (Cat #AHR0221, Biosource International, Inc., Camarillo, Calif.) and the 47-9 (Cat #E55502M, Biodesign International, Saco, M E) were used as positive controls blocking of insulin-insulin receptor binding experiments. Recombinant IGF-1R-Fc fusion protein was produced at Biogen Idec (Cambridge, Mass.).
As isotype matched mouse negative control antibodies, 2B8 (murine α-CD20.1gG,) and 2B8 mkm.G2a (murine α-CD20 MAb, IgG2a, Biogen Idec, Lot #NB3304-87, San Diego, Calif.) were used. The negative control for Fabs was R001-1B provided by Christilyn Graff (Biogen Idec, Cambridge, Mass.). PBS used in buffers was from BioWhittaker (Cat. # 17-513F, Walkersville, Md.).
Recombinant human IGF-1R (Histidine tagged version) or IGF-1R-Fc was coated onto IMMULON2 HB (high binding) Removawell strips (Dynex Technologies, Inc., cat. #6302) diluted with carbonate coating buffer pH 9.5 to a concentration of 250 ng/well. After overnight incubation at 4° C., the wells were washed three times with washing buffer (0.05% Tween 20/PBS) then blocked with blocking buffer (3% BSA/PBS) for one hour at room temperature. The blocking buffer was removed and the wells washed three more times. Antibody, Fab, or ligand preparations were diluted to desired concentration with dilution buffer (1% BSA/0.05% Tween 20/PBS) and plated at 50 μl per well in duplicate. After 45 minutes at room temperature, 100,000 cpm of either [125I] rhIGF-1 or [125I] rhIGF-2 in 50 μl dilution buffer was added per well. This was incubated at room temperature for one more hour. The wells were washed again three more times and left liquid free after the last wash. The air-dried wells were counted with the Isodata Gamma Counter.
Alternatively, Fabs were evaluated by a modified capture assay, where the IGF-1R-Fc was captured using anti-human IgG immobilized to a plate. Immobilization was carried out by overnight incubation of goat anti-human IgG, Fcγ fragment specific antibody (200 ng/well) in carbonate coating buffer. The wells were washed, blocked and 250 ng of IGF-1R-Fc was added per well.
The ligand blocking ability of the anti-IGF-1R antibody was determined by a solid phase RIA capture method as described in Example 3. […] After 1 hour of incubation at room temperature, the wells were washed and counted for bound radioactivity by a Gamma Counter. An isotype matched negative antibody control, IDEC-151 (human G4), was used. Percent (%) inhibition was calculated as =[1−(Ave.CPM with Ab)/(Ave.CPM with buffer)]×100%.

[1] = test system: Akt and p42/44 MAPK phosphorylation; test: Downstream signaling in MCF-7 cells: phospho-Akt and phospho-p44/42 MAPK Western blot; format: cell-based, human
Method: To detect the effect on downstream signaling, cell lysates were generated as described in Example 4. For signaling experiments control and test antibodies were added after serum starvation at 100 nM, 15 nM, 5 nM and 1 nM in 350 μl of fresh serum free media and incubated for 1 hour at 37° C. […] Cells were lysed and recovered sample separated using a 4-12% Bis-Tris gel and immobilized to nitrocellulose (Invitrogen Corp.). The IGF-1R signaling pathway was detected with phospho-Akt at site Thr308 (Cell signaling Technologies, #4056 (Danvers, Mass. USA)) and phospho-p44/42 MAPK at site Thr202/Tyr204 (Cell signaling Technologies, #9101) and anti-rabbit IgG-HRP (Cell Signaling Technologies, #7071). Bands were visualized using ECL luminol reagent (Amersham Biosciences, #RPN2109) and autoradiography. Each blot was stripped of antibody and re-probed respectively for total Akt (Cell signaling Technologies, #9272) or total p44/42 MAPK (Cell signaling Technologies, #9102) and anti-rabbit IgG-HRP. Bands visualized using ECL luminol reagent and autoradiography.
The effect of antibody on down stream signaling events such as Akt and MAPK phosphorylation was determined. […] Receptor was detected with anti-phospho-IGF-1R site Tyr1131 (Cell Signaling Technologies, #3021) or anti-IGF-1RP (Santa Cruz Biotechnology, #SC-9038) and anti-rabbit IgG-HRP (Cell Signaling Technologies, #7071). […]

Molecule | IGF Blocking IGF-1 (IGF-1R; Fabs, 125I-IGF-1) | IGF Blocking IGF-2 (IGF-1R; Fabs, 125I-IGF-2) | blocking of IGF-1 and IGF-2 binding to IGF-1R (IGF-1R) | inhibition of IGF-1 and IGF-2 induced phosphorylation of Akt at Ser473 ([1]; MCF7, all concentrations tested (1-100 nM)) | inhibition of IGF-1 and IGF-2 mediated phosphorylation of Akt and p42/44 MAPK ([1]; MCF-7, 100, 15, 5 and 1 nM)
B1 | ++ (>30%@1ug/ml) | ++ (>30%@1ug/ml) |  |  | 
B2 |  |  | block both IGF-1 and IGF-2 binding | inhibited | 
B3 |  |  | block both IGF-1 and IGF-2 binding |  | inhibited
